Reference: PubChem BioAssay AID1466 (National Center for Advancing Translational Sciences (NCATS), 2008)
The campaign covered roughly 200,000 compounds. About 10 (0.005%) were called active. The inconclusive results got no clear call from the source; some entries with a clear call stand among them for comparison. Calls follow the shape of the dose curve; as a rule, active = well fitted inhibition curve with a large enough effect; inconclusive = small, poorly fitted or top-dose-only effect, or effect the other way, or another doubt; inactive = no such curve, though single readings can be large or run the other way. Potencies of inconclusive entries are left out as doubtful fits.

What follows are compounds tested against Lysosomal alpha-glucosidase (Homo sapiens) (UniProt P10253) (assay: qHTS Assay for Inhibitors of Human alpha-Glucosidase as a Potential Chaperone Treatment of Pompe Disease). Conditions: purified human GAA, 4-MU-alpha-glucoside fluorescence; activity change, negative = inhibition: at 76.9 µM (top of the series) unless noted.
Outline: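 Enzyme (4 nM final) mixed with compound (up to 77 uM), then 4-MU-alpha-D-pyranoside (400 uM final) added; 20 min at room temperature, pH 5.0. Reaction stopped at pH 10, fluorescence read, AC50 derived by Hill fit.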
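For activity change, negative = inhibition in this document: plate controls were uninhibited enzyme wells for no effect and no-enzyme background for full effect.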
Potency is read from the fitted curve at half-maximal effect; tags tell the direction and shape of the fitted curve.

| SMILES | activity change, negative = inhibition | Potency |
| --- | --- | --- |
| O=S(=O)(c1ccc2ccccc2c1)N1CCN=C1SCc1cccnc1 | inactive: -2.01% | – |
| NC(=O)CSc1nnc(Cc2ccc3c(c2)OCO3)o1 | inconclusive: 19.3% [activator] | – |
| Cc1cc(C)cc(NC(=O)Nc2ccc(N3CCCCC3)cc2)c1 | – | inconclusive [inhibitor, full curve, poor fit] |
| O=[N+]([O-])c1ccc(-c2csc(NN=C3CCCC3)n2)cc1 | inconclusive: 16.2% [activator] | – |
| O=C(CCC(=O)N1CCc2ccccc2C1)N1CCN(S(=O)(=O)c2ccccc2)CC1 | – | inconclusive [inhibitor, partial curve] |
| COc1ccccc1S(=O)(=O)Nc1ccc(-c2nnc3n2CCCCC3)cc1 | inactive: 0.837% | – |
| Cc1ccc(CNC(=O)Nc2ccccc2)cc1 | inactive: -8.37% | – |
| CN(Cc1cccs1)C(=O)CCc1ccc(S(=O)(=O)N2CCOCC2)cc1 | – | inconclusive [inhibitor, partial curve] |
| COc1ccccc1CNC(=O)COC(=O)Cn1cnc2ccccc21 | inconclusive: -16% [inhibitor] | – |
| Cc1ccc2nc(SCCC(=O)O)cc(C)c2c1 | – | inconclusive [inhibitor, single point] |
| Cc1cccc2sc(N(CCCN(C)C)C(=O)CCc3ccccc3)nc12 | – | inconclusive [inhibitor, full curve] |
| CCOc1ccc(/C=N/NC(=O)c2cc(-c3ccco3)nc3ccccc23)cc1 | – | inconclusive [activator, single point] |
| CCCC(=O)c1ccc(N2CCN(C(=O)c3ccc(Br)cc3)CC2)c(F)c1 | – | inconclusive [inhibitor, partial curve] |
| CCCCSc1nc2c(cnn2-c2ccccc2)c(=O)n1N | inconclusive: 14.5% [activator] | – |
| CCOC(=O)C1=C(C)NC2=C(C(=O)C(C(=O)OCC)C(c3ccco3)C2)C1c1ccccn1 (stereo not given) | – | inconclusive [activator, single point] |
| COc1ccc(C2C(C#N)=C(N)N(c3sc4c(c3C#N)CCCC4)C3=C2C(=O)CC(C)(C)C3)cc1OC (stereo not given) | – | inconclusive [inhibitor, single point] |
| Cc1ccc(S(=O)(=O)Nc2ccc3c(c2)nc2n3CCN(Cc3ccccc3)C2)cc1 | – | inconclusive [inhibitor, partial curve] |
| COc1ccc(-c2ccnc3ncnn23)cc1 | – | inconclusive [activator, partial curve] |
| CN(C)c1ccc(-c2nn3c(C4CCCCC4)nnc3s2)cc1 | – | inconclusive [activator, full curve, poor fit] |
| O=C(NCc1ccccc1)C1CCCN(c2nc3ccsc3c(=O)s2)C1 (stereo not given) | – | inconclusive [activator, partial curve] |
| COC(=O)C1=NNC2C(=O)N(c3ccc(C)cc3)C(=O)C12 (stereo not given) | – | inconclusive [inhibitor, single point] |
| O=C(NCCO)Nc1ccc(Cl)cc1 | inconclusive: 15.6% [activator] | – |

| SMILES | activity change, negative = inhibition | Potency |
| --- | --- | --- |
| O=c1[nH]c2cc3c(cc2cc1CN(Cc1ccc2c(c1)OCO2)Cc1nnnn1CC1CCCO1)OCO3 (stereo not given) | – | inconclusive [activator, partial curve] |
| CCOC(=O)c1cc(-c2ccccc2)sc1NC(=O)COC | inconclusive: 15.9% [activator] | – |
| COc1ccc(C2OC(=O)CC2C(=O)NCc2ccc(C)cc2)cc1OC (stereo not given) | – | inconclusive [inhibitor, partial curve] |
| COc1ccccc1/C=N/n1c(N)c(S(=O)(=O)c2cccs2)c2nc3ccccc3nc21 | – | inconclusive [activator, single point] |
| CCCOP(=O)(OCCC)c1c([N+](=O)[O-])cc(C(F)(F)F)cc1[N+](=O)[O-] | – | inconclusive [inhibitor, single point] |
| CCOc1ccc(N2C(=O)C3C(c4ccc(O)cc4)NC(CCSC)(C(=O)OC)C3C2=O)cc1 (stereo not given) | inconclusive: 18.7% [activator] | – |
| COc1ccc(-n2c(SCC(=O)N3CCN(c4ccccc4)CC3)nc3c(c2=O)SCC3)cc1 | – | inconclusive [inhibitor, single point] |
| CCc1nc2ccccc2c(C(=O)OCC(=O)Nc2ccc(S(=O)(=O)N3CCOCC3)cc2)c1C | – | inconclusive [inhibitor, single point] |
| COC(=O)c1sc(N)c(C(=O)OC)c1COC(=O)CNS(=O)(=O)c1ccc(C)c(C)c1 | – | inconclusive [inhibitor, full curve, poor fit] |
| COc1ccc(C(=O)COC(=O)CCn2nnc(-c3cccs3)n2)cc1 | – | inconclusive [inhibitor, full curve] |
| C[C@@H]1CN(Cc2nc(-c3cccs3)no2)C[C@H](C)O1 | – | inconclusive [inhibitor, single point] |
| O=[N+]([O-])c1cccnc1N1CCC(c2cc(-c3ccc(Cl)cc3Cl)n[nH]2)CC1 | – | inconclusive [inhibitor, single point] |
| O=C(COc1ccc(S(=O)(=O)N2CCCC2)cc1)Nc1ccc2c(c1)OCCO2 | inconclusive: 10.6% [activator] | – |
| COc1cc(CNC(C)(C)CO)cc(Br)c1OCc1ccc(Cl)cc1Cl | – | inconclusive [inhibitor, full curve, poor fit] |
| Cc1ccc(NC(=O)CSc2ncnc3ccccc23)cc1S(=O)(=O)N1CCCCC1 | – | inconclusive [inhibitor, single point] |
| COc1cccc(CNC(=O)CCC2CCCN(C(=O)C3=CC(=O)CC(C)(C)O3)C2)c1 (stereo not given) | inconclusive: 16% [activator] | – |
| C=CCNC(=S)Nc1cccc(N)c1 | inconclusive: 14.8% [activator] | – |
| Cc1n[nH]c(=O)nc1NCc1ccc(Cl)cc1 | inconclusive: -15.5% [inhibitor] | – |
| COC(=O)CN1C(=O)Nc2ccc(C)cc2C1c1ccccc1 (stereo not given) | – | inconclusive [inhibitor, single point] |
| Cc1ccc(OCC(=O)n2nc(C)cc2C)c(C)c1 | – | inconclusive [inhibitor, full curve, poor fit] |
| O=[N+]([O-])c1cc(/C=N/Nc2nc(N3CCCCC3)nc(N3CCCCC3)n2)ccc1O | inactive: 0.458% | – |
| Cc1cc(=O)oc(C)c1C(=O)Nc1cnc2ccccc2c1 | – | inconclusive [inhibitor, single point] |

| SMILES | activity change, negative = inhibition | Potency |
| --- | --- | --- |
| CCCc1ccc(C(=O)CCC(=O)O)cc1 | inconclusive: 16.8% [activator] | – |
| COc1ccc(N2C(=O)CC(NCCNc3ccc([N+](=O)[O-])cn3)C2=O)cc1 (stereo not given) | – | inconclusive [inhibitor, single point] |
| Cc1cccn2cc(-c3ccc(S(=O)(=O)N4CCOCC4)cc3)nc12 | – | inconclusive [inhibitor, partial curve, poor fit] |
| COc1ccccc1NC(=O)c1oc2ccccc2c1NC(=O)c1ccco1 | – | inconclusive [activator, partial curve] |
| COc1ccc(C(=O)NNC2=CC(=O)CC(C)(C)C2)cc1 | inactive: -0.75% | – |
| Cc1c(Cl)cccc1Nc1nc(N)nc(CN2CCCCCC2)n1 | – | inconclusive [inhibitor, partial curve] |
| N#Cc1nc(-c2cccs2)oc1NCCN1CCOCC1 | inconclusive: 36.8% [activator] | – |
| N#Cc1c(Cl)cccc1N1CCCC1 | inactive: 6.49% | – |
| C=CCN1C(=O)/C(=C\c2ccco2)C(C(=O)OC)=C1C | – | inconclusive [inhibitor, single point] |
| Cc1cc(/C=C2\SC(=S)N(Cc3ccco3)C2=O)c(C)n1-c1cccnc1 | – | inconclusive [inhibitor, partial curve, poor fit] |
| Nc1ccccc1-c1nc2ccccc2s1 | – | inconclusive [activator, partial curve] |
| CCCCc1ccc(NC(=S)NCc2ccc(OC)cc2)cc1 | inconclusive: 4.95% [activator] | – |
| Cn1ncc(SCc2ccccc2)c(Cl)c1=O | – | inconclusive [inhibitor, partial curve] |
| Cc1ccc(C)c(Cn2nnc3c(=O)[nH]c(C4CCCN(C(=O)CC(C)C)C4)nc32)c1 (stereo not given) | – | inconclusive [inhibitor, single point] |
| O=C(CC1NC(=O)NC1=O)Nc1ccccc1 (stereo not given) | – | inconclusive [activator, partial curve, poor fit] |
| Clc1ccc(-c2ccc(C=Nc3ccc(N4CCOCC4)cc3)o2)c(Cl)c1 | – | inconclusive [inhibitor, partial curve, poor fit] |
| Cc1cc(C)c(S(=O)(=O)Nc2ccc(C(N)=O)cc2)c(C)c1 | inconclusive: 18.2% [activator] | – |
| COc1ccc(/C=N/n2c(=O)[nH]c3c([nH]c4ccc(C)cc43)c2=O)cc1CN1CCOCC1 | – | inconclusive [activator, partial curve] |
| S=C(NCc1ccco1)N1CCN(c2ccc(Cl)cc2)CC1 | – | inconclusive [inhibitor, single point] |
| Cn1c(NCc2ccccc2)nc2c1c(=O)n(Cc1ccccc1)c(=O)n2C | – | inconclusive [inhibitor, partial curve, poor fit] |
| O=C(C1CCCN1S(=O)(=O)c1ccc(Br)cc1)N1CCOCC1 (stereo not given) | inconclusive: -23% [inhibitor] | – |
